# According to PMC4336329 (PLoS ONE, 2015):
# The whole screen tested about 310,000 compounds, of which about 14,000 (4.5%) showed an effect of 50% or more. Effects have a minus sign here. Some of the results follow.
# Target: human ether-à-go-go-related gene (hERG) potassium channel (human, UniProt Q12809)
# Assay: primary screen, population patch clamp on CHO cells stably expressing hERG
# 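Also: peak tail current of the secondary pulse compared with the same well before compound.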
# Sequence of human ether-à-go-go-related gene (hERG) potassium channel (Q12809 whole entry, looked up): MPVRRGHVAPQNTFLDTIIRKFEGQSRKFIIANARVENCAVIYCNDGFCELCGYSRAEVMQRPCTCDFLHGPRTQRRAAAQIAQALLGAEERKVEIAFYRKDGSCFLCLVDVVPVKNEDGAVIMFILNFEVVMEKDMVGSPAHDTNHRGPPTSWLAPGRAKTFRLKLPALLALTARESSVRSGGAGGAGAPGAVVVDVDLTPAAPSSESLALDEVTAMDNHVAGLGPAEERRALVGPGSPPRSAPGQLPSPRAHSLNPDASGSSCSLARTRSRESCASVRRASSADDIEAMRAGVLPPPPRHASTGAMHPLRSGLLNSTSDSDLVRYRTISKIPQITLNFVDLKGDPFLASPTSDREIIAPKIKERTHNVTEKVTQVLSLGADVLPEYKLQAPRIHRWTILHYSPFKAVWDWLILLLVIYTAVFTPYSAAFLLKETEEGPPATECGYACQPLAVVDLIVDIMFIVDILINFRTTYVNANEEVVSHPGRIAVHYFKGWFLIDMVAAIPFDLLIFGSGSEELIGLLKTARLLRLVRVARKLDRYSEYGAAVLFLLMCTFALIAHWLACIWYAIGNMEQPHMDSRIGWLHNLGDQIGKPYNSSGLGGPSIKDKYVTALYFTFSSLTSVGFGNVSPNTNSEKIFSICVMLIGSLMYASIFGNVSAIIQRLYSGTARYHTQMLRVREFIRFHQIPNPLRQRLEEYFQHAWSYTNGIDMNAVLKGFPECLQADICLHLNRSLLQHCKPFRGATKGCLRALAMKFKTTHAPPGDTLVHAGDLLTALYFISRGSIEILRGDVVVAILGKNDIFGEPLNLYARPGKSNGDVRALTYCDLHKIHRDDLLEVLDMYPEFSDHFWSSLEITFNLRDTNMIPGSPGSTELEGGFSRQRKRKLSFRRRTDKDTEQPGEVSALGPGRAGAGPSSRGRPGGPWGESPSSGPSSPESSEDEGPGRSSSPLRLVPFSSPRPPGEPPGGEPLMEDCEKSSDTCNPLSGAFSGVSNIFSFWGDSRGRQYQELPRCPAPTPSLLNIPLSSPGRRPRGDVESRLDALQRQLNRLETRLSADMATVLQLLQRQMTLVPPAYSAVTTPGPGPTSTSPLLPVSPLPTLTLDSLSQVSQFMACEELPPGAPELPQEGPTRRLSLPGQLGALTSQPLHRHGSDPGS
row,Compound,"hERG current change (%, negative = inhibition) at 10uM [%]"
1,CC1(C)SC2C(NC(=O)COc3ccccc3)C(=O)N2C1C(=O)[O-].[K+] (stereo not shown),-4.23
2,CC(Oc1ccc(Cl)cc1Cl)C(=O)Nn1cnnc1 (stereo not shown),21.4
3,Cc1noc(N)c1C1(O)C(=O)Nc2c(Cl)cc(Cl)cc21 (stereo not shown),0.32
4,COc1ccc(OCc2nnc(NC(=O)Nc3ccc(F)cc3)s2)cc1,-5.55
5,Cc1ccc(C)c(N2CCN(C(=O)C3CCCN(S(=O)(=O)c4c(C)noc4C)C3)CC2)c1 (stereo not shown),-11.1
6,COc1ccc(CCNC(=O)c2nnn(-c3ccc4c(c3)OCCO4)c2N)cc1OC,-2.71
7,Cc1ccc(NC2=C(Cl)C(=O)OC2OC(=O)c2ccco2)cc1 (stereo not shown),-42.2
8,O=C1/C(=C/c2ccco2)SC(=S)N1CC1CCCO1 (stereo not shown),2.63
9,Cn1ncc([N+](=O)[O-])c1C(=O)N1CCOCC1,-11.8
10,COc1c(C(=O)Nc2nnc(C3CC3)s2)csc1Cl,6.86
11,COc1cccc(C2=NN(C(=O)c3ccco3)C(O)(C(F)(F)F)C2)c1 (stereo not shown),-1.17
12,CCCCC(CC)C(=O)Nc1cc(C(=O)NCCC)ccc1N1CCC2(CC1)CC(c1ccccc1)=NO2 (stereo not shown),-64.6
13,O=C(O)c1ccc2c(c1)C1C=CCC1C(c1ccncc1)N2 (stereo not shown),-0.0764
14,COc1cc(/C=N/Nc2ccc(C(=O)O)cc2)cc(OC)c1OC,10.5
15,COc1ccccc1C1C(C(=O)c2cc3ccccc3o2)=C(O)C(=O)N1CCN1CCOCC1 (stereo not shown),22.9
16,O=C(CCC(=O)n1ncc2ccccc21)N1CCCCC1,5.74
17,CCCCN(CC(=O)NC1CC1)S(=O)(=O)c1ccc(OCC)cc1,-22.1
18,O=[N+]([O-])c1ccc(Sc2ccccc2Cl)nc1,1.63
19,CCOc1ccc(NC(=O)c2ccccc2OCC(=O)c2ccc(C)cc2)cc1,7.69
20,CN(CC(=O)NCc1ccccn1)S(=O)(=O)c1cc(Cl)ccc1Cl,-6.98
21,Cc1ccccc1C(=O)Nc1cccc(C#N)c1,-5
22,COc1ccc(S(=O)(=O)Nc2ccccc2Cl)cc1NC(C)=O,8.78

row,Compound,"hERG current change (%, negative = inhibition) at 10uM [%]"
1,CCOC(=O)COc1ccc(S(=O)(=O)N2CCN(c3ccccc3F)CC2)cc1,-7.1
2,CCC(C)(C(=O)NC1CCCC1)N(Cc1cccs1)C(=O)c1ccc2c(c1)OCO2 (stereo not shown),-13.7
3,O=C1CC(N2CCN(c3ccccc3Cl)CC2)C(=O)N1c1ccccc1 (stereo not shown),3.14
4,COCCCNC(=S)NCCCNc1nc2cc3c(cc2cc1C#N)OCO3,-4
5,CCc1nn2c(=O)cc(COc3cccc(NC(=O)c4ccco4)c3)nc2s1,6.17
6,Cc1ccc(CNS(=O)(=O)CCNC(=O)c2ccc3c(c2)OCO3)cc1,-17
7,COc1cc(/C=N/NC(=O)CCNC(=O)c2ccccc2Cl)ccc1O,16.3
8,COc1ccc(C(=O)Nc2nc(C)c(C(=O)N(C)C)s2)cc1OC,15.9
9,CC(C)(C)c1ccc(C(=O)NC(=S)N2CCOCC2)cc1,13.1
10,COc1ccc(CN(CCCN2CCOCC2)C(=O)Nc2ccccc2)cc1OC,-10.9
11,CCN1CCN(C(=O)C2(NC(=O)Nc3ccccc3Cl)CCCCC2)CC1,-12.4
12,Cc1cc(C)c2c(n1)nn1c(C3CC3)cc(C(F)(F)F)nc21,9.78
13,CCOC(=O)c1oc2ccccc2c1N,5.11
14,O=Cc1ccc(Sc2nnc(-c3ccccc3)o2)c([N+](=O)[O-])c1,10
15,CCOc1ccc(C(=O)N(CC(=O)Nc2cccc(C)c2C)CC2CCCO2)cc1OC (stereo not shown),-2.11
16,Cc1cc([N+](=O)[O-])nn1CC(=O)N/N=C/c1ccccc1O,2.6
17,CCC1(C)Cc2nc3[nH]c(=S)n(-c4ccccc4)c(=O)c3cc2CO1 (stereo not shown),17.6
18,O=C(c1cccs1)n1nc(-c2ccccc2)nc1NCc1ccc(F)cc1,-33.6
19,Cc1nc2ncnn2c(C)c1CCC(=O)NC(C)CCc1ccco1 (stereo not shown),-8.57
20,COc1ccc(-c2csc(N(CCCN(C)C)C(=O)c3cccs3)n2)cc1.Cl,-73.9
21,COc1ccc(C(=O)N2CCN(C(=O)c3ccco3)CC2)cc1,-5.7
22,COc1cccc(C(=O)Nc2cc(C)ccc2NC(=O)COc2ccccc2)c1,13.4

row,Compound,"hERG current change (%, negative = inhibition) at 10uM [%]"
1,O=C(O)CSc1cccc2cccnc12,16.3
2,CCC(C)Nc1nc2c(c(=O)n(C)c(=O)n2C)n1Cc1ccc(F)cc1 (stereo not shown),-7.7
3,CCn1c(SCc2nnc(-c3ccccc3)o2)nnc1-c1ccc(S(=O)(=O)N2CCCC2)cc1,-34.6
4,O/N=C/c1ccc2ccccc2c1,3.05
5,N#CCCn1nc(-c2ccccc2)cc1Nc1ccccc1NC(=O)C(F)(F)F,-16.8
6,O=C(Nc1ccccc1N1CCOCC1)c1ccc(Cl)c(S(=O)(=O)NCc2ccco2)c1,-51.8
7,CCc1cc2c(=O)n(N)c(CCC(=O)O)nc2s1,-8.56
8,CCOCCOC(=O)COc1ccc2c(=O)c(Oc3ccc(OC)cc3)coc2c1,15.3
9,Fc1ccc(C[n+]2c(-c3ccccc3)cc(-c3ccccc3)cc2-c2ccccc2)cc1.[O-][Cl+3]([O-])([O-])[O-],-71.5
10,CCCCCSc1nnc(-c2cc(Br)ccc2N)c(=O)[nH]1,4.09
11,Cc1ccc([N+](=O)[O-])cc1NC(=O)Cc1cccs1,18.6
12,O=c1oc(-c2cccs2)nc2ccccc12,4.42
13,CC(=O)N(c1nc(CCl)cs1)c1c(C)cc(C)cc1C,7.84
14,Cc1ccc(-n2nc(C(=O)O)c(C)c(C#N)c2=O)cc1Cl,16.7
15,CCN1C(=O)C(CC(=O)Nc2ccc(OC)cc2)N(CCCN2CCN(c3ccc(F)cc3)CC2)C1=S (stereo not shown),-37.6
16,COc1ccc2c(CC(=O)OCC(=O)c3ccc(F)cc3)coc2c1,6.5
17,CN(c1cccc(Cl)c1)S(=O)(=O)c1cccc(C(=O)NC2=NCCS2)c1,6.79
18,CCc1ccc(-c2cc(C(=O)NN3CCN(C)CC3)c3ccccc3n2)cc1,-38.3
19,Cc1nonc1NC(=O)OCCN1CCOC1=O,15.3
20,COc1ccc(C(=O)NCC(=O)OCc2ccc(Cl)cc2Cl)cc1OC,-6.66
21,COc1cccc(CN2CCN(Cc3nc(C(C)C)cs3)CC2CCO)c1 (stereo not shown),-73.7
22,O=C(/C=C/c1ccc2c(c1)OCO2)NCc1ccco1,2.13

row,Compound,"hERG current change (%, negative = inhibition) at 10uM [%]"
1,Cc1ccc(NCN2C(=O)C3C4C=CC(C4)C3C2=O)cc1 (stereo not shown),8.22
2,CS(=O)(=O)N1CCN(c2ccc([N+](=O)[O-])cc2C(F)(F)F)CC1,-40.7
3,CCc1occc(=O)c1Oc1cc(NN2CCCCC2)c([N+](=O)[O-])cc1[N+](=O)[O-],-42.2
4,COc1cccc(/C=C2/SC(=S)N(CC(=O)NNC(=O)c3ccccc3O)C2=O)c1,21.9
5,Cc1ccc(S(=O)(=O)N2CCOCC2)cc1NC(=O)CSc1nnc(NC2CC2)s1,-6.46
6,CCCSc1nc(NCc2ccco2)c2c3c(sc2n1)COC(C)(CC)C3 (stereo not shown),6.65
7,CCOC(=O)N1CCC(NC(=O)C2CCCN(S(=O)(=O)c3cccc4nsnc34)C2)CC1 (stereo not shown),-17.1
8,COc1ccc(O[C@H]2C=C[C@@H](c3ccccc3)O[C@@H]2COC(=O)CC/C(C)=N/O[C@H](C)c2cn([C@@H]3COC[C@H]3O)nn2)cc1,-15.5
9,Cc1ccc2c(c1)CC1(CN2C)C(=O)NC(=O)N(CCc2ccccc2)C1=O (stereo not shown),-15.2
10,CCn1c(C)nc2cc(C(=O)NNC(=S)Nc3ccccc3OC)ccc21,-13.2
11,COC1CCCCC1Nc1cc(C)cc(C)c1 (stereo not shown),5.98
12,COc1ccccc1NC(=O)Cn1c(CN2CCCCC2)nc2ccccc2c1=O,-43.7
13,O=C(Nc1ccnn1C1CCN(Cc2ccc(C#CCCO)cc2)CC1)c1cccc(F)c1,-77.3
14,CCc1nn(CC(=O)NCCCN2CCN(CC)CC2)c(=O)c2cc3occc3n12,16.7
15,Cc1cc(=O)[nH]c2c(C)cc(S(=O)(=O)N3CCCCC3)cc12,4.69
16,CC(=O)Nc1ccc(N2CC(C)(C)C2=O)cc1,5.07
17,CC(=O)c1sc(Nc2cccc3ccccc23)nc1C.Cl,5.55
18,Cc1cccc(OP(=O)(Oc2ccccc2)OC(c2ccccc2)C(F)(F)F)c1 (stereo not shown),8.93
19,Cc1ccc(C)c(CSC2=NCCN2S(=O)(=O)c2ccccc2)c1,-6.88
20,COc1ccc(NC2=NCC(=O)N2c2ccccc2F)c(OC)c1.Cl,1.89
21,CCOCCCNC(=O)Cc1cc(=O)[nH]c(=O)[nH]1,-3.82
22,COc1cccc(C2NC(=O)c3ccccc3O2)c1OC (stereo not shown),19.6
